{
  "source": "paper PMC9574860",
  "about": "“Chemical Toolkit for PARK7: Potent, Selective, and High-Throughput” (Journal of Medicinal Chemistry, 2022)",
  "note": "Screen size: about 7,900 compounds; about 400 (5.1%) showed an effect of 50% or more. Some of the results follow.",
  "data": [
    {"molecular_target": "Parkinson's disease protein 7 (PARK7/DJ1) (human, UniProt Q99497)", "sequence (Q99497 whole entry, looked up, the tested form may be a part)": "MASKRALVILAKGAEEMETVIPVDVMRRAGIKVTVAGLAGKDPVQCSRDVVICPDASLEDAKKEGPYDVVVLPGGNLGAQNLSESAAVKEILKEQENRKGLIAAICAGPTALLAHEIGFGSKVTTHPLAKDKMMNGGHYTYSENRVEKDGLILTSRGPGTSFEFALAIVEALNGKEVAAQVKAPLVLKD", "test": "primary screen, percent inhibition; read as competition with a fluorescent probe by fluorescence polarization; higher = more effect of the substance", "details": "100 µM", "procedure,_shortened": "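Covalent fragments at 100 μM final were incubated 2 h with 0.2 μM PARK7, then 20 nM probe JYQ-107 added for a further 2 h. Fluorescence polarization read at 480/520 nm; relative FP loss versus reference controls gave remaining enzyme activity.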", "units": {"Inhibition %": "%"}, "values": [
      {"smiles": "Nc1cc(N)nc(S)n1", "Inhibition %": 6.46},
      {"smiles": "N#Cc1nccnc1N1CCC(C(F)(F)F)CC1", "Inhibition %": 2.52},
      {"smiles": "CC1CC(NC(=O)c2n[nH]c3ccccc23)C(=O)O1", "note": "(stereo not shown)", "Inhibition %": 9.75},
      {"smiles": "O=C(c1ccccc1O)N1CCC(C2OCCO2)CC1", "Inhibition %": 6.55},
      {"smiles": "O=C(CCl)c1c[nH]c2ccncc12", "Inhibition %": 24.6},
      {"smiles": "N#Cc1c(NC(=O)CCl)sc2c1CCCC2", "Inhibition %": 4.78},
      {"smiles": "C=CC(=O)NCC(C)c1nncn1C", "note": "(stereo not shown)", "Inhibition %": 28.8},
      {"smiles": "C=CC(=O)N1CCn2cccc2C1c1ccccc1", "note": "(stereo not shown)", "Inhibition %": 5.2},
      {"smiles": "CC(C)(C)NS(=O)(=O)C1(C2CO2)CCC1", "note": "(stereo not shown)", "Inhibition %": 7.81},
      {"smiles": "Cc1cc(C)cc(NC2C=CS(=O)(=O)C2)c1", "note": "(stereo not shown)", "Inhibition %": 11.5},
      {"smiles": "O=C(O)c1ccc(C2OCCO2)cc1", "Inhibition %": 7.82},
      {"smiles": "C=CC(=O)NCc1noc(C2CC2)n1", "Inhibition %": 15.2},
      {"smiles": "C=CC(=O)NCC1CCc2nc(C(F)(F)F)cn2C1", "note": "(stereo not shown)", "Inhibition %": 1.96},
      {"smiles": "C=CC(=O)N(C)CC1COc2ccccc2O1", "note": "(stereo not shown)", "Inhibition %": 3.26},
      {"smiles": "Cl.Cn1cncc1CCCl", "Inhibition %": 5.21},
      {"smiles": "C=CC(=O)N(C)C1CCN(CC)C(C)C1", "note": "(stereo not shown)", "Inhibition %": 10.6},
      {"smiles": "COc1ccc(-c2nc(C#N)c(NCC(C)C)o2)cc1", "Inhibition %": 6.61},
      {"smiles": "COc1ccccc1-c1nnc(-c2ccc(S(=O)(=O)F)cc2)o1", "Inhibition %": 9.83},
      {"smiles": "C=CC(=O)N1CCCC1(C)c1ccccc1", "note": "(stereo not shown)", "Inhibition %": 3.15},
      {"smiles": "Cc1nc(C=CC(=O)N2CCCCC2CN)cs1", "note": "(stereo not shown)", "Inhibition %": 11.1},
      {"smiles": "C=CC(=O)N1CSCC1C(=O)NCC1CC1", "note": "(stereo not shown)", "Inhibition %": 12.6},
      {"smiles": "COc1ccc(C(C)C)cc1S(=O)(=O)n1cccn1", "Inhibition %": 2.8},
      {"smiles": "C=CC(=O)N1CC(C)(C)C1c1cccs1", "note": "(stereo not shown)", "Inhibition %": 8.35},
      {"smiles": "C=CC(=O)N(C)C(c1ccc(Cl)cc1)C1CCOCC1", "note": "(stereo not shown)", "Inhibition %": 6.78},
      {"smiles": "C=CC(=O)N1C[C@@H](C(F)(F)F)[C@H](S(=O)(=O)N(C)C)C1", "Inhibition %": 4.79},
      {"smiles": "C#CC(=O)Cc1ccccc1", "Inhibition %": 7.8},
      {"smiles": "C=CC(=O)N1CC(N)C1.O=S(=O)(O)C(F)(F)F", "Inhibition %": 8.51},
      {"smiles": "COc1ccc(B2OC(C)(C)C(C)(C)O2)c(N)c1", "Inhibition %": 56},
      {"smiles": "Cc1nc(C=CC(=O)N2CCC(C(=O)O)C2)cs1.Cl.Cl", "note": "(stereo not shown)", "Inhibition %": 5.34},
      {"smiles": "C=CC(=O)NCc1ccns1", "Inhibition %": 10.9},
      {"smiles": "Cn1ncc(Cl)c1B1OC(C)(C)C(C)(C)O1", "Inhibition %": 25},
      {"smiles": "C=CC(=O)Nc1cc(F)ccc1C", "Inhibition %": 3.57},
      {"smiles": "N#Cc1cnn(-c2ccccc2)c1NC(=O)CCl", "Inhibition %": 2.36},
      {"smiles": "CCN(C(=O)c1cc(B(O)O)ccc1F)C1CCOC(C)(C)C1", "note": "(stereo not shown)", "Inhibition %": 3.67}
    ]}
  ]
}
